{"source": "paper PMC6212790", "note": "The list shows a part of the results. At the low end of the ranking, values are background and their order means little."}
{"biological_target": "T1, GST-Rok-C97-191 (UniProt O34857)", "T1 sequence": "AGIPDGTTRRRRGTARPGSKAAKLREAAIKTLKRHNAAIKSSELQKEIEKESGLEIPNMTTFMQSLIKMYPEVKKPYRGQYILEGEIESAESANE", "test": "protein binding microarray;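 further: rank score from −0.5 (least bound) to 0.5 (best bound)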", "conditions": "Rok is a gene silencer of Bacillus subtilis; high values mean tight binding; most listed sequences are background and not binding sites; double strand, one strand shown", "units": {"binding signal": "E-score"}}
{"sequence": "CTGCTATA", "binding signal": 0.039}
{"sequence": "GCGGCTAA", "binding signal": 0.0233}
{"sequence": "AGCGCGCA", "binding signal": 0.0348}
{"sequence": "ACTTTCGG", "binding signal": -0.266}
{"sequence": "GAGGTATA", "binding signal": 0.243}
{"sequence": "ACAGCAGG", "binding signal": -0.103}
{"sequence": "TAAGGCGA", "binding signal": -0.0689}
{"sequence": "AGACCCTA", "binding signal": -0.133}
{"sequence": "AAGAGGAA", "binding signal": -0.118}
{"sequence": "AGTAAACG", "binding signal": 0.0727}
{"sequence": "CGTGGCGA", "binding signal": -0.208}
{"sequence": "GCGCGTAA", "binding signal": 0.0054}
{"sequence": "ACGCAATA", "binding signal": 0.142}
{"sequence": "ATCTGACC", "binding signal": 0.192}
{"sequence": "AAGAATTG", "binding signal": -0.0756}
{"sequence": "AATTCTAT", "binding signal": 0.286}
{"sequence": "AACGCACG", "binding signal": -0.176}
{"sequence": "ATTATCTG", "binding signal": 0.203}
{"sequence": "ACATGTGA", "binding signal": 0.0923}
{"sequence": "AATTTTCT", "binding signal": 0.209}
{"sequence": "GACTACGC", "binding signal": 0.00274}
{"sequence": "GCGCGTAC", "binding signal": -0.000337}
{"sequence": "GTGTTGAA", "binding signal": 0.0236}
{"sequence": "AACACTGA", "binding signal": -0.05}
{"sequence": "AGACTAAC", "binding signal": -0.066}
{"sequence": "AGCATTAC", "binding signal": 0.0703}
{"sequence": "AACAGTCA", "binding signal": -0.129}
{"sequence": "GGCTCCGA", "binding signal": -0.256}
{"sequence": "CCTTGCCA", "binding signal": -0.118}
{"sequence": "ACTGGGCG", "binding signal": -0.273}
{"sequence": "ATGTTTGC", "binding signal": -0.0475}
{"sequence": "ATCTCTGA", "binding signal": -0.0745}
{"sequence": "GATGCTAA", "binding signal": -0.0442}
{"sequence": "CTGGACAG", "binding signal": -0.0421}
{"sequence": "TTATCAAA", "binding signal": 0.147}
{"sequence": "AGGATGAG", "binding signal": -0.0429}
{"sequence": "ACCCCGGA", "binding signal": -0.137}
{"sequence": "TAGCGCTA", "binding signal": 0.147}
{"sequence": "CAATCATG", "binding signal": 0.062}
{"sequence": "AGATAAAG", "binding signal": 0.1}
{"sequence": "CGGATCCA", "binding signal": -0.17}
{"sequence": "ATTGGTAC", "binding signal": 0.278}
{"sequence": "AAACTCGG", "binding signal": -0.00747}
{"sequence": "AGTGCCGA", "binding signal": -0.101}
{"sequence": "ATCGCGAA", "binding signal": 0.0721}
{"sequence": "TACGACTA", "binding signal": 0.202}
{"sequence": "AAAACCGT", "binding signal": -0.149}
{"sequence": "AATCTCGC", "binding signal": 0.0361}
{"sequence": "TGCTTAAA", "binding signal": 0.104}
{"sequence": "ACCCCGAC", "binding signal": -0.137}
{"sequence": "GAGCTGGA", "binding signal": -0.0628}
{"sequence": "CAGGAGCC", "binding signal": -0.242}
{"sequence": "CTCAACAG", "binding signal": -0.0121}
{"sequence": "GCTCGATA", "binding signal": 0.092}
{"sequence": "GAGATCTC", "binding signal": 0.0034}
{"sequence": "CGCCAGCA", "binding signal": -0.0439}
{"sequence": "TACCAGTA", "binding signal": 0.211}
{"sequence": "GAGTTTAA", "binding signal": 0.0511}
{"sequence": "GAGGATGA", "binding signal": -0.18}
{"sequence": "CGATACAG", "binding signal": -0.103}
{"sequence": "ACGTGAGT", "binding signal": 0.0117}
{"sequence": "ATTTCAGG", "binding signal": -0.117}
{"sequence": "TGCGCCCA", "binding signal": -0.209}
{"sequence": "GGTTAGAC", "binding signal": -0.127}
{"sequence": "ACTCCAGA", "binding signal": -0.151}
{"sequence": "TACTAAGA", "binding signal": 0.261}
{"sequence": "TCTCATAA", "binding signal": -0.125}
{"sequence": "AAGTCAAA", "binding signal": 0.0182}
{"sequence": "CCCCACCA", "binding signal": -0.239}
{"sequence": "GGACGGTA", "binding signal": 0.0698}
{"sequence": "AGTAACCG", "binding signal": -0.0657}
{"sequence": "GATCTGAA", "binding signal": -0.0587}
{"sequence": "GTGCTGTA", "binding signal": 0.108}
{"sequence": "ATAACAAT", "binding signal": 0.219}
{"sequence": "TAAACTTA", "binding signal": 0.126}
{"sequence": "GAAATGAC", "binding signal": 0.0247}
{"sequence": "GTTTGCAA", "binding signal": 0.153}
{"sequence": "AGACACCA", "binding signal": -0.301}
{"sequence": "GATGCGTA", "binding signal": 0.000456}
{"sequence": "ATGCCTAC", "binding signal": 0.253}
{"sequence": "ATGAGTGC", "binding signal": -0.0369}
{"sequence": "AAAGGCTT", "binding signal": -0.103}
{"sequence": "ACACGGTC", "binding signal": -0.306}
{"sequence": "AGTATGTG", "binding signal": 0.214}
{"sequence": "GCTGAGCC", "binding signal": -0.0869}
{"sequence": "AGGCTCGG", "binding signal": -0.224}
{"sequence": "CGCGAGAC", "binding signal": -0.0871}
{"sequence": "CCGAGGGA", "binding signal": -0.0892}
{"sequence": "GCCGGCTA", "binding signal": -0.152}
{"sequence": "GGGACTCA", "binding signal": -0.234}
{"sequence": "ATGGAGAA", "binding signal": -0.0533}
{"sequence": "GACCTTTA", "binding signal": -0.194}
{"sequence": "AAACTCTA", "binding signal": 0.0775}
{"sequence": "AGAAGTCG", "binding signal": -0.0318}
{"sequence": "TCAGCTAA", "binding signal": 0.0706}
{"sequence": "AAGAAACC", "binding signal": 0.103}
{"sequence": "ATTAGGGG", "binding signal": -0.168}
{"sequence": "ATCAACGA", "binding signal": -0.0076}
{"sequence": "ATTGAAAC", "binding signal": -0.0273}
{"sequence": "AGATACCT", "binding signal": 0.182}
{"sequence": "CTTTACAA", "binding signal": 0.143}
{"sequence": "ATGGGGTC", "binding signal": -0.301}
{"sequence": "ACGCCCAA", "binding signal": -0.122}
{"sequence": "CAAGGACC", "binding signal": -0.267}
{"sequence": "CCATTTCA", "binding signal": -0.0132}
{"sequence": "AGAGACAC", "binding signal": -0.0235}
{"sequence": "AAACATTG", "binding signal": 0.0181}
{"sequence": "AATCACAA", "binding signal": 0.147}
{"sequence": "ACTTCCGA", "binding signal": 0.0551}
{"sequence": "GTATGACA", "binding signal": -0.0829}
{"sequence": "AATCTGAT", "binding signal": 0.00651}
{"sequence": "ACGCACAT", "binding signal": 0.134}
{"sequence": "ACTTTTCA", "binding signal": 0.113}
{"sequence": "CGTTAGGA", "binding signal": -0.0542}
{"sequence": "GCCACTAC", "binding signal": 0.0368}
{"sequence": "CAAATTCC", "binding signal": -0.0496}
{"sequence": "ACATTCAC", "binding signal": -0.000613}
{"sequence": "TCAGCGAA", "binding signal": -0.101}
{"sequence": "AACGGAAA", "binding signal": 0.0543}
{"sequence": "ACTCTAAG", "binding signal": -0.214}
{"sequence": "CCGCAATA", "binding signal": 0.0938}
{"sequence": "CAGCGGCC", "binding signal": -0.346}
{"sequence": "GTAGTTGA", "binding signal": 0.217}
{"sequence": "AGAGCGTG", "binding signal": -0.00588}
{"sequence": "GCAGTAAC", "binding signal": 0.16}
{"sequence": "CGGTCCCC", "binding signal": -0.469}
{"sequence": "GAAGAGCC", "binding signal": -0.202}
{"sequence": "GCTTGTCA", "binding signal": -0.0768}
{"sequence": "ACGTCAAG", "binding signal": -0.0669}
{"sequence": "ATTAGGTA", "binding signal": 0.222}
{"sequence": "AGCTTTAC", "binding signal": 0.0944}
{"sequence": "GCACTGCA", "binding signal": 0.0712}
{"sequence": "ATTTGGAC", "binding signal": -0.0118}
{"sequence": "AATGGGTC", "binding signal": -0.0773}
{"sequence": "ACCTATAG", "binding signal": 0.268}
{"sequence": "AAACACTA", "binding signal": 0.194}
{"sequence": "ATGCTTTC", "binding signal": 0.00474}
{"sequence": "CCTCCCCA", "binding signal": -0.376}
{"sequence": "GAAAAGCA", "binding signal": 0.0881}
{"sequence": "GTTCGGCA", "binding signal": 0.04}
{"sequence": "AAGCTCTA", "binding signal": 0.0126}
{"sequence": "ACAGCTGA", "binding signal": 0.085}
{"sequence": "GCAAGTCA", "binding signal": -0.00141}
{"sequence": "CAGATGCG", "binding signal": -0.144}
{"sequence": "CGGCAACA", "binding signal": 0.00477}
{"sequence": "GCCAGGGA", "binding signal": -0.203}
{"sequence": "GTTCAAAA", "binding signal": -0.0057}
{"sequence": "ATAGTTTG", "binding signal": 0.366}
{"sequence": "CAGAAGGA", "binding signal": -0.186}
{"sequence": "CGCTCTAC", "binding signal": -0.0294}
{"sequence": "CATATCGG", "binding signal": 0.0167}
{"sequence": "AGCATTTC", "binding signal": -0.0617}
{"sequence": "AGATACCG", "binding signal": 0.171}
{"sequence": "CATCAGGC", "binding signal": -0.14}
{"sequence": "TATAGAGA", "binding signal": 0.15}
{"sequence": "GAAAAATC", "binding signal": -0.0901}
{"sequence": "ATAATGGA", "binding signal": 0.0889}
{"sequence": "ATTTCAAG", "binding signal": 0.0112}
{"sequence": "AAGCTATC", "binding signal": 0.241}
{"sequence": "AGACAGCG", "binding signal": -0.0757}
{"sequence": "GGACGCCA", "binding signal": -0.169}
{"sequence": "CCACAGCG", "binding signal": -0.181}
{"sequence": "GCTCCGAA", "binding signal": -0.109}
{"sequence": "CGCGTGCA", "binding signal": -0.0435}
{"sequence": "AATAGAAT", "binding signal": 0.318}
{"sequence": "CCGAGAGA", "binding signal": -0.0879}
{"sequence": "CGCGAGAG", "binding signal": -0.135}
{"sequence": "ACCCAACT", "binding signal": 0.22}
{"sequence": "AATTGGCC", "binding signal": -0.155}
{"sequence": "ACTCTACA", "binding signal": 0.108}
{"sequence": "CAAGCTCC", "binding signal": -0.0901}
{"sequence": "ACTAACCA", "binding signal": 0.0601}
